PubChem BioAssay AID463173 (ICCB-Longwood Screening Facility, Harvard Medical School, 2010)
Out of some 52,000 compounds screened, about 4,300 (8.3%) were called active. Cut-off read from the data, not from the text of the source: active = survival mostly below about 52% (no sharp cut-off); inactive = mostly above about 56%. The list shows a part of the results.

What follows are molecules tested on DeltatarO mutant (assay: S. aureus survival, RN4220 and DeltatarO strains – OD600, teichoic acid synthesis inhibitors, primary screen (AID 463173)). Details: S. aureus RN4220 wild type/DeltatarO growth, OD600, 18 h, stronger effect = lower value, screened at 18.75 µg/mL (by protocol).

SMILES	survival
Cc1ccc2c(=O)c(C(=O)c3cccc(Cl)c3)cn(CC(=O)NC3CCCCC3)c2n1	inactive: 104%
CC(C)(C)C(=O)NCCc1nc2ccccc2n1CCCCOc1ccccc1	active: 41%
Cc1ccc(N(CC(=O)N2CCN(c3ccc(F)cc3)CC2)S(=O)(=O)c2c(C)noc2C)cc1	inactive: 83%
CCOc1ccc(C2c3c(-c4cc(C)ccc4O)n[nH]c3C(=O)N2Cc2cccnc2)cc1OCC (stereo not given)	inactive: 72%
COc1ccccc1NC(=O)CC(C)n1nc(C)cc1C (stereo not given)	inactive: 67%
Nc1ccccc1-c1nc2ccccc2s1	inactive: 78%
CCCN(Cc1cc2cccc(C)c2[nH]c1=O)C(=O)c1cccc(Cl)c1	inactive: 75%
Cc1ccc(CSc2cn(CC(=O)N3CCCCCC3)c3ccccc23)cc1	inactive: 84%
COc1cccc(CNC(=O)Cn2ncc3c(=O)oc4ccccc4c32)c1	inactive: 126%
O=S(=O)(NCc1ccc(F)cc1)c1ccc(N2CCCCS2(=O)=O)cc1	inactive: 99%
O=C(CC1CCCCC1)NCC1CCCO1 (stereo not given)	inactive: 103%
CCOc1ccccc1CNCCCSc1nnnn1C	inactive: 69%
CCn1cc(/C=C(\NC(=O)c2cc(OC)c(OC)c(OC)c2)C(=O)NCCCn2ccnc2)c2ccccc21	inactive: 109%
Cc1cc(NC(=O)Cc2ccccc2)cc(-c2nc3ccccc3o2)c1O	inactive: 79%
CCOC(=O)c1cc2c(=O)n3ccccc3nc2n(C(C)C)c1=NC(=O)C(C)(C)Oc1ccc(Cl)cc1	inactive: 57%
Cc1nc(-c2ccc(F)cc2)sc1CCNC(=O)Cc1ccc(F)cc1	inactive: 81%
Cc1c(C(=O)NCCN(C)C)oc2c1-c1nn(Cc3cccc(Cl)c3)cc1CC2	inactive: 77%
CC(C)CC(=O)Nc1cccc(-c2nnc(-c3cccc(NC(=O)CC(C)C)c3)o2)c1	inactive: 71%
CN(C)c1ccc(Nc2ncnc3c2c(-c2ccccc2)cn3-c2cccc(Cl)c2)cc1	inactive: 107%
Cc1cccc(C)c1NC(=O)Cn1nnc(S(=O)(=O)c2ccccc2)c1N	inactive: 91%
O=C1CN(C(=O)c2ccc(S(=O)(=O)N3CCCC3)cc2)C(c2ccccc2)c2cc(F)ccc2N1 (stereo not given)	inactive: 73%
CC1CCCC(C)N1C(=O)CSc1nc2ccccc2n1CC(=O)NC1CCCC1 (stereo not given)	inactive: 82%
Cn1nnc2cc(C(=O)NCc3ccco3)ccc21	inactive: 79%

SMILES	survival
N#Cc1c(-c2ccccc2)cc(-c2ccccc2)nc1SCC(O)CS(=O)(=O)Cc1ccc(Cl)cc1 (stereo not given)	inactive: 67%
O=C(CSc1nc(=O)n(Cc2ccccn2)c2c1CCC2)Nc1ccccc1	inactive: 67%
Cc1cccc(CCNCc2cc3cc4c(cc3[nH]c2=O)OCO4)c1	inactive: 85%
CSc1ccccc1NC(=O)CCS(=O)(=O)c1nc(-c2ccc3c(c2)OCO3)cc(C(F)(F)F)n1	inactive: 132%
CN(C)S(=O)(=O)c1ccc(S(=O)(=O)N2CCC(c3nc4ccccc4s3)CC2)cc1	inactive: 103%
COc1cc(CNC(=O)c2cnc(SC)nc2-c2ccccc2)cc(OC)c1OC	inactive: 58%
Cc1ccc(S(=O)(=O)C(CNS(=O)(=O)c2cc(F)ccc2F)c2cccs2)cc1 (stereo not given)	inactive: 64%
Cc1cccc(S(=O)(=O)c2cn(Cc3ccccc3)c3cc(N4CCCCC4)c(F)cc3c2=O)c1	inactive: 82%
CC(=O)Nc1ccccc1-c1n[nH]c(=S)[nH]c1=O	inactive: 95%
COC(=O)c1ccccc1NS(=O)(=O)c1cc2c(cc1C)N(C)CCO2	inactive: 87%
COc1ccc(CCC(=O)NC2CC(=O)N(c3ccc(F)cc3)C2)cc1 (stereo not given)	inactive: 74%
CCN(CC)C(=O)c1c(-c2ccccc2)c(-c2ccccc2)nn(CC)c1=O	inactive: 108%
COc1ccccc1N1CCN(C(=O)CN2C(=O)COc3ccc(S(=O)(=O)N4CCOCC4)cc32)CC1	inactive: 86%
O=C1C(CO)NC(=S)N1c1ccccc1 (stereo not given)	inactive: 125%
CCC1CCCCN1c1ncnc2c1nnn2Cc1ccccc1Cl (stereo not given)	inactive: 99%
CCN(Cc1nc(-c2ccc(OC)c(OC)c2)no1)S(=O)(=O)c1ccc(OC)cc1	inactive: 47%
CC1CN(C(=O)N(C)C)CCN1C(=O)N(C)C (stereo not given)	inactive: 99%
CC1Cc2ccccc2N1C(=O)c1cnsn1 (stereo not given)	inactive: 97%
COc1ccc(NC(=O)C(=O)NCCc2csc3nc(-c4ccccc4F)nn23)cc1OC	inactive: 67%
CC(=O)c1ccc(NS(=O)(=O)c2ccc3c(c2)NC(=O)CCS3)cc1	inactive: 84%
O=C1C2C3C=CC(C3)C2C(=O)N1CCN1C(=O)C2C3C=CC(C3)C2C1=O (stereo not given)	inactive: 101%
O=C(NC12CCC(O)C(SC1)/C2=N/O)c1ccccc1 (stereo not given)	inactive: 98%
CCCNC(=O)c1ccc2c(c1)nc1n2CCCCC1	inactive: 94%

SMILES	survival
Cc1noc(C)c1S(=O)(=O)N(CC(=O)Nc1ccc(F)cc1F)c1ccc(C(C)C)cc1	inactive: 67%
Cc1ccc(NC(=O)C2CCN(S(=O)(=O)c3cccc4nsnc34)CC2)cc1F	inactive: 84%
COc1ccc(Cn2ccc3nc(C)c(C(=O)Nc4cccc(SC)c4)cc3c2=O)cc1	inactive: 95%
COc1cccc(CNC(=O)Cn2ncn3nc(-c4cccs4)cc3c2=O)c1	inactive: 60%
CCOC(=O)Cc1csc(NC(=O)CSc2nc3c(C)c(C)ccc3cc2C#N)n1	inactive: 78%
CN1CCN(c2ncnc3c2cnn3-c2cccc(Cl)c2)CC1	inactive: 101%
Cc1cccc(N2CCN(C3=C(c4ccccc4)C(=O)c4ccccc43)CC2)c1C	inactive: 65%
COc1cc(OC)c(OC)cc1/C=C/c1nc2cc3ccccc3cc2c(=O)n1-c1ccccc1Br	inactive: 81%
Cc1ccc(CNC(=O)c2cc(=O)c3cc(C)ccc3o2)cc1	active: 42%
COc1cc2c(c(OC)c1)C(c1cccc(F)c1F)CC(=O)N2 (stereo not given)	inactive: 110%
CCn1cc2nc(SCc3ccccc3Cl)n(Cc3ccc(OC)cc3)c(=O)c2n1	inactive: 87%
COc1cccc(CNC(=O)c2ccc(-c3nc(CSc4ccccc4)c(C)o3)cc2)c1	inactive: 83%
CCCN(CCC)CCCNC(=O)c1cc2c(=O)n(C)c3ccccc3c2s1	inactive: 141%
CC(=O)Nc1ccc(S(=O)(=O)n2cnc3cc(C)c(C)cc32)cc1	inactive: 74%
CC(=O)Nc1ccccc1-c1nc2ccccc2n(C(C)C(=O)Nc2ccccc2C(F)(F)F)c1=O (stereo not given)	inactive: 98%
COc1ccc(-c2c(C)c3ccc(O)c(CN4CCC(C)CC4)c3oc2=O)cc1OC	inactive: 77%
COc1ccc(C(Nc2ccccn2)c2ccc3ccc(C)nc3c2O)cc1C (stereo not given)	active: 40%
COC(=O)c1c(NC(=O)c2cc(=O)c3ccc(C)c(C)c3o2)sc2c1CCCC2	inactive: 84%
COc1ccc(CCNC(=O)CN(c2ccccc2OC)S(=O)(=O)c2ccc(C)cc2)cc1	inactive: 71%
O=C(Nc1sc2c(c1C(=O)Nc1ccccc1Cl)CCCC2)c1ccccc1F	active: 48%
COC(=O)c1ccc(NC(=O)CSc2nc3ccc(OC)cc3[nH]2)cc1	inactive: 184%
Cc1ccc(NC(=O)CSc2nc(C)c(Cc3ccccc3)c(=O)[nH]2)cc1	inactive: 48%
COCCCNC(=O)Cn1c(=O)n(Cc2ccc(C(=O)NCc3ccc(C)cc3)cc2)c(=O)c2ccccc21	inactive: 96%

SMILES	survival
COc1ccc(CCNC(=O)Cc2c(C)c3c(cc(C)c4c(C)coc43)oc2=O)cc1	inactive: 89%
COc1ccc(N2CCN(C(=O)c3cnc(N4CCCC4)nc3C)CC2)cc1	inactive: 101%
CCC(Sc1nc2ccccc2c2nc(CCc3c(C)n[nH]c3C)nn12)C(=O)Nc1ccc(F)cc1 (stereo not given)	inactive: 80%
COc1ccccc1CNS(=O)(=O)c1ccc2[nH]c3c(c2c1)CCCCC3	inactive: 86%
O=C(NN1CC(=O)N(C2CCCC2)C1=O)C(c1ccccc1)c1ccccc1	inactive: 83%
CC1=C(c2ccc(C)cc2)S(=O)(=O)N(Cc2ccc(C(=O)NCc3cccc(C)c3)cc2)C1=O	inactive: 86%
CC(Oc1ccccc1)c1nnc(N)s1 (stereo not given)	inactive: 84%
Cc1c(Cl)cccc1NC(=O)N1CCC(CN2CCCC2)CC1	inactive: 83%
O=C(Cc1ccc(F)cc1)NC1CC(=O)N(c2ccc3c(c2)OCCO3)C1 (stereo not given)	inactive: 77%
COc1cccc(-c2cn3c(n2)sc2cc(C(=O)NC4CCCCCC4)ccc23)c1	inactive: 60%
CC1Cc2ccccc2N1C(=O)C1CCN(S(=O)(=O)c2ccc(-n3cnnn3)cc2)CC1 (stereo not given)	inactive: 93%
O=C(Cn1ncc2c3ccccc3n(Cc3ccc(Cl)cc3)c2c1=O)N1CCCCCC1	inactive: 84%
COc1ccc(Br)cc1CNC(=O)Cn1c(=O)c2cccn2c2ccc(F)cc21	inactive: 64%
Cc1ccccc1Cn1cc(CCC(=O)NC(C)c2ccccc2)c2ccccc21 (stereo not given)	inactive: 71%
Cc1cc(C)c2oc(-c3cccc(NC(=O)c4ccc(Br)o4)c3)nc2c1	active: 34%
CCC(C)c1ccc(OCC(=O)Nc2cccc(-c3nc4ncccc4o3)c2)cc1 (stereo not given)	active: 19%
CCOc1ccc(NC(=O)c2oc3ccccc3c2NC(=O)Cc2ccc(F)cc2)cc1	inactive: 101%
COC(=O)c1cc(NC(=O)c2oc(=O)c3ccccc3c2-c2ccccc2)cc(C(=O)OC)c1	inactive: 68%
Cc1ccc(NC(=O)CN2C(=O)CSc3ccc(S(=O)(=O)N4CCCC4)cc32)cc1F	inactive: 87%
COc1cc(OC)c(NC(=O)c2nnn(Cc3ccc(C)cc3)c2N)cc1Cl	inactive: 60%
Cc1ccc(NC(=O)c2c(NC(=O)c3ccco3)sc3c2CCC(C(C)(C)C)C3)c(C)c1 (stereo not given)	inactive: 145%
